The text below walks through data of the supplement of paper PMC4967469.

By IC50 is meant the dose at which the fit gives 50% viability; a fit beyond the top or the lowest dose is shown as a bound at that dose. AUC sums up the same curve from the lowest dose to the 256-fold higher top dose; it is 1 without any effect and falls as sensitivity rises. For part of these data: Any top dose called inferred is not printed in the source and was worked back from the curve model.

Holding throughout (experiment): Viability of human cancer cell lines after 72 h of drug (GDSC screen)
Compound in one test: CCC/C=C/C=C/C(=O)O[C@H]1/C(=C/C(=O)OC)C[C@H]2C[C@H]([C@@H](C)O)OC(=O)C[C@H](O)C[C@@H]3C[C@H](OC(C)=O)C(C)(C)[C@](O)(C[C@@H]4C/C(=C/C(=O)OC)C[C@H](/C=C/C(C)(C)[C@]1(O)O2)O4)O3 [Bryostatin 1]
To be noted: top dose 0.008 µM; top dose inferred. The procedure: (§1)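 Human cancer cell lines in 384-well plates, medium with 10% serum, drug for 72 h over a 256-fold dose range (nine 2-fold or five 4-fold steps up to the top dose). Adherent lines were fixed and stained with the nucleic acid dye Syto60, suspension lines read with resazurin; signal relative to control wells, capped at 0 and 100%. One two-parameter sigmoid per drug and line, fitted in a mixed model over all curves with the slope shared within a line.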

Compound in another test: CC(C)N(CCCNC(=O)Nc1ccc(C(C)(C)C)cc1)C[C@H]1O[C@@H](n2cc(Br)c3c(N)ncnc32)[C@H](O)[C@@H]1O [SGC0946]
Particulars: top dose 0.5 µM; top dose inferred. Here is the method: as §1

Compound in the next test: COc1ccc(COc2ccc(Cc3cnc(N)nc3N)cc2OC)cc1 [GW-2580]
To be noted: top dose 20 µM; top dose inferred. Here is the method:
as §1

Compound in the next test: Nc1cccc2c1CN(C1CCC(=O)NC1=O)C2=O [Lenalidomide]
To be noted: top dose 5 µM; top dose inferred. Here is the method:
as §1

Compound in a further test: Cc1cc(Nc2cc(N3CCN(C)CC3)nc(Sc3ccc(NC(=O)C4CC4)cc3)n2)n[nH]1 [VX-680]
Particulars: top dose 2 µM. Here is the method: as §1

The term IC50 denotes the concentration that gives 50% inhibition. For the cell line ST486 (Burkitt lymphoma, suspension), the AUC with Bryostatin 1 is 0.99; in the test with SGC0946, 0.989; with GW-2580, 0.99; with Lenalidomide, 0.99; in the test with VX-680 it was 0.596. For the same cell line, the IC50 was above 8 nM with Bryostatin 1; above 500 nM in the test with SGC0946; above 20000 nM in the test with GW-2580; above 5000 nM with Lenalidomide; 222 nM with VX-680.
In the case of SU-DHL-16 (B-cell lymphoma, suspension), the AUC with Bryostatin 1 was 0.982; with SGC0946, 0.996; with GW-2580, 0.996; with Lenalidomide it was 0.993; with VX-680, 0.435. The IC50 with Bryostatin 1 is above 8 nM; with SGC0946, above 500 nM; with GW-2580 it was above 20000 nM; in the test with Lenalidomide, above 5000 nM; with VX-680, 86.9 nM.
Turning to “SUP-M2 (anaplastic large cell lymphoma, suspension)”, the AUC with Bryostatin 1 came to 0.992; in the test with SGC0946, 0.994; with GW-2580, 0.993; in the test with Lenalidomide it was 0.992; with VX-680, 0.351. The IC50 is above 8 nM with Bryostatin 1; above 500 nM in the test with SGC0946; above 20000 nM in the test with GW-2580; above 5000 nM with Lenalidomide; 53.7 nM with VX-680.
With “SUP-T1 (T-cell lymphoblastic leukaemia, suspension)”, the AUC in the test with Bryostatin 1 is 0.988; in the test with SGC0946 it was 0.989; with GW-2580, 0.979; with Lenalidomide it was 0.96; in the test with VX-680, 0.99. Besides, the 50% inhibitory concentration (IC50) was above 8 nM with Bryostatin 1; above 500 nM with SGC0946; above 20000 nM with GW-2580; above 5000 nM with Lenalidomide; above 2000 nM in the test with VX-680.
Consider SW684 (fibrosarcoma, adherent), for which the AUC with Bryostatin 1 came out at 0.895; in the test with SGC0946, 0.978; with GW-2580 it was 0.971; with Lenalidomide, 0.983; with VX-680, 0.982. Moreover, the IC50 is above 8 nM with Bryostatin 1; above 500 nM with SGC0946; above 20000 nM with GW-2580; above 5000 nM with Lenalidomide; above 2000 nM with VX-680.
Turning to SW954 (urogenital system, adherent), the AUC turned out to be 0.954 with Bryostatin 1; 0.983 in the test with SGC0946; 0.979 with GW-2580; 0.982 in the test with Lenalidomide; 0.48 with VX-680. For the same cell line, the IC50 in the test with Bryostatin 1 is above 8 nM; with SGC0946, above 500 nM; in the test with GW-2580, above 20000 nM; with Lenalidomide, above 5000 nM; in the test with VX-680, 110 nM.
As to TE-5 (oesophagus, adherent), the AUC with Bryostatin 1 turned out to be 0.972; with SGC0946 it was 0.982; with GW-2580 it was 0.984; with Lenalidomide, 0.983; with VX-680 it was 0.958. The IC50 in the test with Bryostatin 1 is above 8 nM; in the test with SGC0946, above 500 nM; in the test with GW-2580, above 20000 nM; with Lenalidomide, above 5000 nM; with VX-680, above 2000 nM.
Take TE-11 (oesophagus, adherent): the AUC in the test with Bryostatin 1 was 0.874; in the test with SGC0946 it was 0.989; in the test with GW-2580, 0.989; with Lenalidomide, 0.973; with VX-680, 0.482. For the same cell line, the IC50 in the test with Bryostatin 1 is 6.64 nM; with SGC0946, above 500 nM; with GW-2580, above 20000 nM; with Lenalidomide, above 5000 nM; with VX-680, 112 nM.
As for TUR (B-cell lymphoma, suspension), the AUC with Bryostatin 1 is 0.979; with SGC0946, 0.978; with GW-2580, 0.974; in the test with Lenalidomide it was 0.98; with VX-680, 0.988. Also, the IC50 is above 8 nM with Bryostatin 1; above 500 nM in the test with SGC0946; above 20000 nM in the test with GW-2580; above 5000 nM with Lenalidomide; above 2000 nM with VX-680.
As for UACC-257 (melanoma, adherent), the AUC with Bryostatin 1 came out at 0.967; in the test with SGC0946 it was 0.98; with GW-2580, 0.956; with Lenalidomide, 0.981; with VX-680, 0.888. Further, the IC50 was above 8 nM with Bryostatin 1; above 500 nM in the test with SGC0946; above 20000 nM with GW-2580; above 5000 nM with Lenalidomide; above 2000 nM with VX-680.
As for VA-ES-BJ (soft tissue, adherent), the AUC in the test with Bryostatin 1 worked out at 0.937; with SGC0946, 0.984; in the test with GW-2580, 0.984; with Lenalidomide, 0.983; with VX-680, 0.579. The IC50 was above 8 nM in the test with Bryostatin 1; above 500 nM with SGC0946; above 20000 nM in the test with GW-2580; above 5000 nM in the test with Lenalidomide; 209 nM with VX-680.
For the cell line WIL2-NS (lymphoid neoplasm, suspension), the AUC was 0.979 with Bryostatin 1; 0.992 in the test with SGC0946; 0.988 with GW-2580; 0.975 with Lenalidomide; 0.911 in the test with VX-680. The IC50 with Bryostatin 1 was above 8 nM; with SGC0946 it was above 500 nM; with GW-2580 it was above 20000 nM; in the test with Lenalidomide, above 5000 nM; with VX-680, 1920 nM.
Take WSU-NHL (lymphoid neoplasm, suspension): the AUC in the test with Bryostatin 1 came out at 0.982; with SGC0946, 0.99; with GW-2580 it was 0.99; with Lenalidomide it was 0.973; in the test with VX-680, 0.99. Moreover, the IC50 in the test with Bryostatin 1 is above 8 nM; with SGC0946, above 500 nM; with GW-2580 it was above 20000 nM; with Lenalidomide, above 5000 nM; with VX-680, above 2000 nM.
Consider no-10 (glioma, adherent), for which the AUC came out at 0.94 in the test with Bryostatin 1; 0.98 with SGC0946; 0.979 in the test with GW-2580; 0.981 with Lenalidomide; 0.962 in the test with VX-680. Moreover, the IC50 with Bryostatin 1 is above 8 nM; in the test with SGC0946, above 500 nM; in the test with GW-2580, above 20000 nM; in the test with Lenalidomide, above 5000 nM; with VX-680 it was above 2000 nM.
For the cell line no-11 (glioma, adherent), the AUC with Bryostatin 1 is 0.956; with SGC0946, 0.98; in the test with GW-2580, 0.972; in the test with Lenalidomide, 0.977; with VX-680, 0.939. Further, the IC50 with Bryostatin 1 is above 8 nM; with SGC0946, above 500 nM; with GW-2580, above 20000 nM; with Lenalidomide, above 5000 nM; in the test with VX-680 it was above 2000 nM.
